Test results from the supplement of paper PMC8821664.
Counter-ions that a name gives are not always drawn. The list shows a part of the results. Most values come without repeats; read them as rough.

tested on: Beas-2B AQP5-HiBiT reporter cells; test: AQP5-HiBiT luminescence relative to vehicle (ratio to vehicle); higher = higher AQP5-HiBiT protein abundance; details: 10 µM; 18 h
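Also: monoclonal Beas-2B line stably carrying CMV promoter-driven AQP5-HiBiT, 5,000 cells per well in 384-well plates, lytic HiBiT plus LgBiT NanoLuc luminescence, FDA-approved drug library screen.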

**Q.** `CCN(CC)CCCC(C)Nc1ccnc2cc(Cl)ccc12` (stereo not given) [Chloroquine diphosphate] was tested. Which AQP5-HiBiT luminescence did it give?
**A.** 1.71

**Q.** Which AQP5-HiBiT luminescence does the source give for `CN[C@@H]1[C@H](O[C@H]2[C@H](O[C@H]3[C@H](O)[C@@H](O)[C@H](N=C(N)N)[C@@H](O)[C@@H]3N=C(N)N)O[C@@H](C)[C@]2(O)C=O)O[C@@H](CO)[C@H](O)[C@H]1O` [Streptomycin sulfate] here?
**A.** 1

**Q.** With `[I-].[K+]` [Potassium iodide] as the molecule, how does the AQP5-HiBiT luminescence read?
**A.** 0.987

**Q.** `CC(C)C(=O)Oc1ccc(CO)cc1[C@H](CCN(C(C)C)C(C)C)c1ccccc1` [Fesoterodine fumarate] was tested. Which AQP5-HiBiT luminescence did it give?
**A.** 0.945

**Q.** Which AQP5-HiBiT luminescence does the source give for `Cc1cnc(NC(=O)C2=C(O)c3ccccc3S(=O)(=O)N2C)s1` [Meloxicam] here?
**A.** 1.21

**Q.** `C[C@H]1C[C@@H]2[C@H]([C@@H](O)C[C@@]3(C)[C@H]2CC[C@]3(O)C(=O)CO)[C@@]2(C)C=CC(=O)C=C12` [Methylprednisolone] was tested. Which AQP5-HiBiT luminescence did it give?
**A.** 0.65

**Q.** `CN(C)CCC(c1ccc(Cl)cc1)c1ccccn1` (stereo not given) [Chlorpheniramine maleate] was tested. Which AQP5-HiBiT luminescence did it give?
**A.** 1.15

**Q.** With `CC(=O)Oc1cc2c(s1)CCN(C(C(=O)C1CC1)c1ccccc1F)C2` (stereo not given) [Prasugrel] as the molecule, how does the AQP5-HiBiT luminescence read?
**A.** 0.986

**Q.** `CS(=O)(=O)OCCCCOS(C)(=O)=O` [Busulfan] was tested. Which AQP5-HiBiT luminescence did it give?
**A.** 1.29

**Q.** How did the AQP5-HiBiT luminescence turn out when `Cn1c(=O)c2nc[nH]c2n(C)c1=O` [Theophylline] was run?
**A.** 0.816

**Q.** Which AQP5-HiBiT luminescence does the source give for `N[C@H]1CONC1=O` [L-Cycloserine] here?
**A.** 0.517

**Q.** For `Clc1ccc(COC(Cn2ccnc2)c2ccc(Cl)cc2Cl)c(Cl)c1` (stereo not given) [Miconazole nitrate], which AQP5-HiBiT luminescence is on record?
**A.** 1.29

**Q.** How did the AQP5-HiBiT luminescence turn out when `CCN(CC)CCNC(=O)c1ccc(N)cc1` [Procainamide hydrochloride] was run?
**A.** 0.72

**Q.** How did the AQP5-HiBiT luminescence turn out when `CC(C)[C@H](N)C(=O)OCCOCn1cnc2c(=O)nc(N)[nH]c21` [Valacyclovir hydrochloride] was run?
**A.** 0.755

**Q.** `O=C(O)c1cc(/N=N/c2ccc(S(=O)(=O)Nc3ccccn3)cc2)ccc1O` [Sulfasalazine] was tested. Which AQP5-HiBiT luminescence did it give?
**A.** 0.636

**Q.** How did the AQP5-HiBiT luminescence turn out when `Cc1cc(NS(=O)(=O)c2ccc(N)cc2)no1` [Sulfamethoxazole] was run?
**A.** 0.756

**Q.** How did the AQP5-HiBiT luminescence turn out when `COc1cc2nc(N3CCN(C(=O)c4ccco4)CC3)nc(N)c2cc1OC` [Prazosin hydrochloride] was run?
**A.** 2.56

**Q.** With `CNC1(C)C2CCC(C2)C1(C)C` (stereo not given) [Mecamylamine hydrochloride] as the molecule, how does the AQP5-HiBiT luminescence read?
**A.** 0.916

**Q.** `C[C@]12C=CC(=O)C=C1CC[C@@H]1[C@@H]2[C@@H](O)C[C@@]2(C)[C@H]1CC[C@]2(O)C(=O)CO` [Prednisolone] was tested. Which AQP5-HiBiT luminescence did it give?
**A.** 0.888

**Q.** For `c1cnc2cc3c(cc2n1)[C@@H]1CNC[C@H]3C1` [Varenicline Tartrate], which AQP5-HiBiT luminescence is on record?
**A.** 0.89

**Q.** How did the AQP5-HiBiT luminescence turn out when `Cc1ccc(C(=O)c2ccc(CC(=O)O)n2C)cc1` [Tolmetin] was run?
**A.** 0.811

**Q.** How did the AQP5-HiBiT luminescence turn out when `CC(C)OC(=O)C(C)(C)Oc1ccc(C(=O)c2ccc(Cl)cc2)cc1` [Fenofibrate] was run?
**A.** 1.05

**Q.** How did the AQP5-HiBiT luminescence turn out when `COC(=O)CCc1ccc(OCC(O)CNC(C)C)cc1` (stereo not given) [Esmolol hydrochloride] was run?
**A.** 1.29

**Q.** How did the AQP5-HiBiT luminescence turn out when `CC(NCCc1ccc(O)cc1)C(O)c1ccc(O)cc1` (stereo not given) [Ritodrine hydrochloride] was run?
**A.** 0.675

**Q.** `CN1CCc2nc(C(=O)N[C@@H]3C[C@@H](C(=O)N(C)C)CC[C@@H]3NC(=O)C(=O)Nc3ccc(Cl)cn3)sc2C1` [Edoxaban Tosylate Monohydrate] was tested. Which AQP5-HiBiT luminescence did it give?
**A.** 0.778

**Q.** `CCCN[C@H]1CCc2nc(N)sc2C1` [Pramipexole] was tested. Which AQP5-HiBiT luminescence did it give?
**A.** 0.75

**Q.** With `CC(C)(C)NCC(O)COc1cccc2c1CC(O)C(O)C2` (stereo not given) [Nadolol] as the molecule, how does the AQP5-HiBiT luminescence read?
**A.** 1.54

**Q.** How did the AQP5-HiBiT luminescence turn out when `CCCC(=O)O[C@]1(C(=O)CO)CC[C@H]2[C@@H]3CCC4=CC(=O)CC[C@]4(C)[C@H]3[C@@H](O)C[C@@]21C` [Hydrocortisone butyrate] was run?
**A.** 0.77

**Q.** With `CN(C)CCOC(c1ccccc1)c1ccccc1.Cn1c(=O)c2[nH]c(Cl)nc2n(C)c1=O` [Dimenhydrinate] as the molecule, how does the AQP5-HiBiT luminescence read?
**A.** 0.872

**Q.** For `COc1ccc2c(c1)c(CC(=O)O)c(C)n2C(=O)c1ccc(Cl)cc1` [Indometacin], which AQP5-HiBiT luminescence is on record?
**A.** 0.687

**Q.** With `CCC[C@@H]1C[C@@H](C(=O)N[C@@H]([C@H]2O[C@H](SC)[C@H](OP(=O)(O)O)[C@@H](O)[C@H]2O)[C@H](C)Cl)N(C)C1` [Clindamycin phosphate] as the molecule, how does the AQP5-HiBiT luminescence read?
**A.** 0.886

**Q.** `COc1cnc(NS(=O)(=O)c2ccc(N)cc2)nc1` [Sulfameter] was tested. Which AQP5-HiBiT luminescence did it give?
**A.** 0.834

**Q.** How did the AQP5-HiBiT luminescence turn out when `N=C(NCCCCCCNC(=N)NC(=N)Nc1ccc(Cl)cc1)NC(=N)Nc1ccc(Cl)cc1` [Chlorhexidine hydrochloride] was run?
**A.** 0.736

**Q.** How did the AQP5-HiBiT luminescence turn out when `C[N+]1(C)[C@@H]2CC[C@H]1C[C@@H](OC(=O)C(O)c1ccccc1)C2` (stereo not given in full) [Homatropine Methylbromide] was run?
**A.** 0.95

**Q.** With `CC(N)C12CC3CC(CC(C3)C1)C2` (stereo not given) [Rimantadine hydrochloride] as the molecule, how does the AQP5-HiBiT luminescence read?
**A.** 0.843

**Q.** Which AQP5-HiBiT luminescence does the source give for `Cc1ncc(CO)c(CO)c1O` [Pyridoxine] here?
**A.** 1.21

**Q.** How did the AQP5-HiBiT luminescence turn out when `COC(=O)N[C@H](C(=O)N[C@@H](Cc1ccccc1)[C@@H](O)CN(Cc1ccc(-c2ccccn2)cc1)NC(=O)[C@@H](NC(=O)OC)C(C)(C)C)C(C)(C)C` [Atazanavir] was run?
**A.** 0.826

**Q.** How did the AQP5-HiBiT luminescence turn out when `OC(CCN1CCCCC1)(c1ccccc1)C1CCCCC1` (racemic) [DL-trihexyphenidyl hydrochloride] was run?
**A.** 1.66

**Q.** `O=C(O)COCCN1CCN([C@H](c2ccccc2)c2ccc(Cl)cc2)CC1` [Levocetirizine] was tested. Which AQP5-HiBiT luminescence did it give?
**A.** 0.814

**Q.** How did the AQP5-HiBiT luminescence turn out when `CC(=O)Oc1ccccc1C(=O)O` [Acetylsalicylic acid] was run?
**A.** 0.97
